Reference: the supplement of paper PMC8728848
This is one part of the list.

How the values were obtained:
Assay in all cases: glycan array binding signal (z-score within array); higher = stronger binding
Conditions in all cases: glycan notation: IUPAC condensed, linker removed
[1] = target: Gal(b1-3)GlcNAc(b1-2)Man(a1-3)[Gal(b1-3)GlcNAc(b1-2)Man(a1-6)]Man(b1-4)GlcNAc(b1-4)[Fuc(a1-6)]GlcNAc
Summary of the method: (§1)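 The Consortium for Functional Glycomics database supplied 3228 glycan arrays, of which those lacking an available protein sequence were dropped. The binding signal, a within-array Z-score, was averaged across arrays of the same protein sequence and across linkers. Negative scores can be read as non-binding.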

[2] = target: Gal(b1-3)GlcNAc(b1-2)Man(a1-3)[GlcNAc(b1-4)][Gal(b1-3)GlcNAc(b1-2)Man(a1-6)]Man(b1-4)GlcNAc(b1-4)GlcNAc
Summary of the method: as §1

[3] = target: Gal(b1-3)GlcNAc(b1-2)[Gal(b1-3)GlcNAc(b1-6)]Man(a1-6)[Gal(b1-3)GlcNAc(b1-2)Man(a1-3)]Man(b1-4)GlcNAc(b1-4)GlcNAc
Summary of the method: as §1

[4] = target: Gal(b1-3)GlcNAc(b1-3)Gal(b1-3)GlcNAc
Summary of the method: as §1

[5] = target: Gal(b1-3)GlcNAc(b1-3)Gal(b1-4)Glc
Summary of the method: as §1

[6] = target: Gal(b1-3)GlcNAc(b1-3)Gal(b1-4)GlcNAc
Summary of the method: as §1

[7] = target: Gal(b1-3)GlcNAc(b1-3)Gal(b1-4)GlcNAc(b1-2)Man(a1-3)[Gal(b1-3)GlcNAc(b1-3)Gal(b1-4)GlcNAc(b1-2)Man(a1-6)]Man(b1-4)GlcNAc(b1-4)GlcNAc
Summary of the method: as §1

[8] = target: Gal(b1-3)GlcNAc(b1-3)Gal(b1-4)GlcNAc(b1-2)[Gal(b1-3)GlcNAc(b1-3)Gal(b1-4)GlcNAc(b1-6)]Man(a1-6)[Gal(b1-3)GlcNAc(b1-3)Gal(b1-4)GlcNAc(b1-2)Man(a1-3)]Man(b1-4)GlcNAc(b1-4)[Fuc(a1-6)]GlcNAc
Summary of the method: as §1

[9] = target: Gal(b1-3)GlcNAc(b1-3)Gal(b1-4)GlcNAc(b1-3)Gal(b1-4)GlcNAc(b1-2)[Gal(b1-3)GlcNAc(b1-3)Gal(b1-4)GlcNAc(b1-3)Gal(b1-4)GlcNAc(b1-6)]Man(a1-6)[Gal(b1-3)GlcNAc(b1-3)Gal(b1-4)GlcNAc(b1-3)Gal(b1-4)GlcNAc(b1-2)Man(a1-3)]Man(b1-4)GlcNAc(b1-4)[Fuc(a1-6)]GlcNAc
Summary of the method: as §1

[10] = target: Gal(b1-3)GlcNAc(b1-3)Gal(b1-4)GlcNAc(b1-6)[Gal(b1-3)GlcNAc(b1-3)]Gal(b1-4)Glc
Summary of the method: as §1

[11] = target: Gal(b1-3)GlcNAc(b1-3)Gal(b1-4)[Fuc(a1-3)]GlcNAc
Summary of the method: as §1

[12] = target: Gal(b1-3)GlcNAc(b1-3)Gal(b1-4)[Fuc(a1-3)]GlcNAc(b1-6)[Gal(b1-3)GlcNAc(b1-3)]Gal(b1-4)Glc
Summary of the method: as §1

[13] = target: Gal(b1-3)GlcNAc(b1-3)GalNAc
Summary of the method: as §1

[14] = target: Gal(b1-3)GlcNAc(b1-6)Gal(b1-4)GlcNAc
Summary of the method: as §1

[15] = target: Gal(b1-3)GlcNAc(b1-6)GalNAc
Summary of the method: as §1

[16] = target: Gal(b1-3)GlcNAc(b1-6)[Gal(b1-3)]GalNAc
Summary of the method: as §1

[17] = target: Gal(b1-3)GlcNAc6S
Summary of the method: as §1

[18] = target: Gal(b1-3)[Fuc(a1-4)]GlcNAc
Summary of the method: as §1

[19] = target: Gal(b1-3)[Fuc(a1-4)]GlcNAc(b1-2)Man
Summary of the method: as §1

[20] = target: Gal(b1-3)[Fuc(a1-4)]GlcNAc(b1-2)Man(a1-3)[Gal(b1-3)[Fuc(a1-4)]GlcNAc(b1-2)Man(a1-6)]Man(b1-4)GlcNAc(b1-4)[Fuc(a1-6)]GlcNAc
Summary of the method: as §1

[21] = target: Gal(b1-3)[Fuc(a1-4)]GlcNAc(b1-3)Gal(b1-3)[Fuc(a1-4)]GlcNAc
Summary of the method: as §1

[22] = target: Gal(b1-3)[Fuc(a1-4)]GlcNAc(b1-3)Gal(b1-4)[Fuc(a1-3)]GlcNAc
Summary of the method: as §1

[23] = target: Gal(b1-3)[Fuc(a1-4)]GlcNAc(b1-6)GalNAc
Summary of the method: as §1

[24] = target: Gal(b1-3)[GlcNAc(b1-6)]GalNAc
Summary of the method: as §1

[25] = target: Gal(b1-3)[Neu5Ac(a2-6)]GalNAc
Summary of the method: as §1

[26] = target: Gal(b1-3)[Neu5Ac(a2-6)]GlcNAc(b1-4)Gal(b1-4)Glc
Summary of the method: as §1

[27] = target: Gal(b1-3)[Neu5Ac(b2-6)]GalNAc
Summary of the method: as §1

[28] = target: Gal(b1-4)Gal
Summary of the method: as §1

[29] = target: Gal(b1-4)GalNAc(a1-3)[Fuc(a1-2)]Gal(b1-4)GlcNAc
Summary of the method: as §1

[30] = target: Gal(b1-4)GalNAc(b1-3)[Fuc(a1-2)]Gal(b1-4)GlcNAc
Summary of the method: as §1

[31] = target: Gal(b1-4)Glc
Summary of the method: as §1

[32] = target: Gal(b1-4)Glc6S
Summary of the method: as §1

[33] = target: Gal(b1-4)GlcNAc
Summary of the method: as §1

[34] = target: Gal(b1-4)GlcNAc(a1-6)Gal(b1-4)GlcNAc
Summary of the method: as §1

[35] = target: Gal(b1-4)GlcNAc(b1-2)Man
Summary of the method: as §1

[36] = target: Gal(b1-4)GlcNAc(b1-2)Man(a1-3)Man(b1-4)GlcNAc(b1-4)GlcNAc
Summary of the method: as §1

[37] = target: Gal(b1-4)GlcNAc(b1-2)Man(a1-3)[Gal(b1-4)GlcNAc(b1-2)Man(a1-6)]Man(b1-4)GlcNAc(b1-4)GlcNAc
Summary of the method: as §1

B1: PX9961V-pdi-562-26-562 (Parabacteroides distasonis) (protein)
chain: EIFSEITTDNYYQNSNNIYAALVNNYAKAFSTGWSDARYFLQEVTADQLMIPTRGKHGYNGGEYVRLHEHKWTVEENFVYNGWAAPFQGIALCNNTLSDFENLDFSTFKLTEETKNEYIAELRALRVWNYMFLIDFFRHVPIVTDIEEVKAQSTPLEVFNFMESELLAILPDLPKNRGVSRFDQAGVASILVRLYLNAEKWIGISKYDECEQMAQAILDGKYGEYSIDPDYRGPFRSGINGYRSKENIMEFAIKKNYFEASWLYNMWMHYQDRYSLDNDWQGWNGGNLAPSRDLYGNLYQDKLGMPFEKFPDGDIRKKAFRVISNDGDYEGFFLMGTQYKFDYEKGYGFTDEVITGTEEYNGKPLVYVDQVGRFSEGETGLAKGSHVIYGEENTGYRLIKFPWLPQSKDLFQMNSIPEIRLAEIYYSLAECKYRSGDKIGAARLLDVVRKRYYKAEDWSKFSYESNISKLTDDEFVDELGREFIGERHRRIDLIRWNRFSEGAWWDKTPDATNQDVFPIPYRALNANPLLKQTTAGF
- glycan array binding signal (z-score) [1]: 5.1
- glycan array binding signal (z-score) [2]: -0.072
- glycan array binding signal (z-score) [3]: 1.99
- glycan array binding signal (z-score) [4]: 1.29
- glycan array binding signal (z-score) [5]: -0.49
- glycan array binding signal (z-score) [6]: -0.428
- glycan array binding signal (z-score) [7]: 0.236
- glycan array binding signal (z-score) [8]: 1.65
- glycan array binding signal (z-score) [9]: 4.46
- glycan array binding signal (z-score) [10]: -0.3
- glycan array binding signal (z-score) [11]: -0.281
- glycan array binding signal (z-score) [12]: -0.831
- glycan array binding signal (z-score) [13]: 0.925
- glycan array binding signal (z-score) [14]: -0.485
- glycan array binding signal (z-score) [15]: -0.064
- glycan array binding signal (z-score) [16]: 0.643
- glycan array binding signal (z-score) [17]: -0.396
- glycan array binding signal (z-score) [18]: -0.252
- glycan array binding signal (z-score) [19]: 0.083
- glycan array binding signal (z-score) [20]: 1.25
- glycan array binding signal (z-score) [21]: 0.256
- glycan array binding signal (z-score) [22]: -0.394
- glycan array binding signal (z-score) [23]: 6.13
- glycan array binding signal (z-score) [24]: -0.026
- glycan array binding signal (z-score) [25]: -0.358
- glycan array binding signal (z-score) [26]: -0.295
- glycan array binding signal (z-score) [27]: -0.399
- glycan array binding signal (z-score) [28]: -0.112
- glycan array binding signal (z-score) [29]: -0.842
- glycan array binding signal (z-score) [30]: -0.377
- glycan array binding signal (z-score) [31]: -0.606
- glycan array binding signal (z-score) [32]: -0.159
- glycan array binding signal (z-score) [33]: -0.082
- glycan array binding signal (z-score) [34]: -0.52
- glycan array binding signal (z-score) [35]: -0.109
- glycan array binding signal (z-score) [36]: -0.492
- glycan array binding signal (z-score) [37]: -0.221
